Assay results as given in US8623864B2, “Thioridazine and derivatives thereof for reversing anti-microbial drug-resistance” (NOA Sic Aps, priority 2003, dated 2014).

Assays:
[1] = system: E. faecalis and E. faecium strains; conditions: regardless of susceptibility to commonly used antibiotics
[2] = system: E. faecalis strains; assay: microbe, parasite or virus in culture; conditions: Enterococcus faecalis
[3] = system: E. faecium strains; assay: microbe, parasite or virus in culture; conditions: Enterococcus faecium
[4] = system: E. faecalis strains; assay: MIC of antibiotics by the E-test; assay type: cell-based, Enterococcus faecalis; conditions: for MIC: Enterococcus faecalis
Experimental: (§1) Strains of E. faecalis and E. faecium were clinical isolates obtained from Sønderborg, Odense and Statens Serum Institut (SSI), Copenhagen, Denmark. According to the profile of vancomycin-resistance, tested strains were either vancomycin-sensitive, VanA- or VanB-positive enterococci. Resistance determination was performed in accordance to the National Committee for Clinical Laboratory Standards (NCCLS) and national guidelines (SSI).
(§2) Animal strains were isolated from the feces of pigs and poultry in Belgium and Denmark and donated by the Veterinary and Agrochemical Research Center (VAR), Brussels, Belgium and the Danish Veterinary Laboratory, Copenhagen, Denmark.
(§3) Oxoid Iso-Sensitest agar was purchased from Oxoid, and adjusted to pH 7.3.
(§4) The minimum inhibitory concentration (MIC) of each antibiotic against various strains employed in this study was determined by the E-test system (Sanchez et al. 1992) and checkerboard microdilution techniques (Eliopulos & Moellering 1991).

[5] = system: E. faecium strains; assay: MIC of antibiotics by the E-test; assay type: cell-based, Enterococcus faecium; conditions: for MIC: Enterococcus faecium
Experimental: as §1, §2, §3, §4

[6] = read-out: MIC (agar dilution), human E. faecalis strains A, B, C, D, E
[7] = read-out: MIC (agar dilution), veterinary E. faecalis strains VT 16, VT 22, VT 37, VT 71, DR 2698, DR 2891
[8] = read-out: MIC (agar dilution), human E. faecium strain 73047
[9] = read-out: MIC (agar dilution), human E. faecium strains 76366, 79765, 87156, 91185
[10] = read-out: MIC (agar dilution), veterinary E. faecium strain 30658
[11] = read-out: MIC (agar dilution), veterinary E. faecium strains 30651, 30656, 30665
[12] = human E. faecalis strain A (Van B)
[13] = human E. faecalis strain B (Van B)
[14] = human E. faecalis strain C (Van B)
[15] = human E. faecalis strain D (Van A)
[16] = veterinary E. faecalis strain DR 2698
[17] = veterinary E. faecalis strain VT 37
[18] = veterinary E. faecalis strain VT 71
[19] = veterinary E. faecalis strains VT16, VT 22, DR 2891
[20] = human E. faecium strains 73047, 91185
[21] = veterinary E. faecium strain 30651
[22] = veterinary E. faecium strain 30658
[23] = veterinary E. faecium strains 30656, 30665

SMILES	Concentration inhibiting all strains [1] [µg/mL]	MIC [2, 6] [µg/mL]	MIC [2, 7] [µg/mL]	MIC [3, 8] [µg/mL]	MIC [3, 9] [µg/mL]	MIC [3, 10] [µg/mL]	MIC [3, 11] [µg/mL]	Interpretation (clinical susceptibility/resistance) [4, 12]	Interpretation (clinical susceptibility/resistance) [4, 13]	Interpretation (clinical susceptibility/resistance) [4, 14]	Interpretation (clinical susceptibility/resistance) [4, 15]	Interpretation (clinical susceptibility/resistance) ([4]; human E. faecalis strain E)	Interpretation (clinical susceptibility/resistance) [4, 16]	Interpretation (clinical susceptibility/resistance) [4, 17]	Interpretation (clinical susceptibility/resistance) [4, 18]	Interpretation (clinical susceptibility/resistance) [4, 19]	Interpretation (clinical susceptibility/resistance) ([5]; human E. faecium strain 76366)	Interpretation (clinical susceptibility/resistance) ([5]; human E. faecium strain 79765)	Interpretation (clinical susceptibility/resistance) ([5]; human E. faecium strain 87156)	Interpretation (clinical susceptibility/resistance) [5, 20]	also measured
CSc1ccc2c(c1)N(CCC1CCCCN1C)c1ccccc1S2 (racemic) [THIO, thioridazine]	16 to 32	16 (≈ 43.2 µM)	16 (≈ 43.2 µM)	16 (≈ 43.2 µM)	16 (≈ 43.2 µM)	16 (≈ 43.2 µM)	16 (≈ 43.2 µM)														
CN1CCN(CCCN2c3ccccc3Sc3ccc(Cl)cc32)CC1 [PCP, prochlorperazine]	32 to 64	64 (≈ 171 µM)	32 (≈ 85.6 µM)	32 (≈ 85.6 µM)	64 (≈ 171 µM)	32 (≈ 85.6 µM)	64 (≈ 171 µM)														
CC1(C)S[C@@H]2[C@H](NC(=O)[C@H](N)c3ccccc3)C(=O)N2[C@H]1C(=O)O [ampicillin]								S	S	S	S	R	S	S	S	S	R	R	R	R	MIC ([4]; human E. faecalis strain A (Van B), read-out: MIC (E-test)): 0.5 µg/mL; MIC ([4]; human E. faecalis strain B (Van B), read-out: MIC (E-test)): 0.5 µg/mL; MIC ([4]; human E. faecalis strain C (Van B), read-out: MIC (E-test)): 1 µg/mL; MIC ([4]; human E. faecalis strain D (Van A), read-out: MIC (E-test)): 1 µg/mL; MIC ([4]; human E. faecalis strain E, read-out: MIC (E-test)): 32 µg/mL; MIC ([4]; veterinary E. faecalis strain DR 2698, read-out: MIC (E-test)): 1 µg/mL; MIC ([4]; veterinary E. faecalis strain VT 37, read-out: MIC (E-test)): 1 µg/mL; MIC ([4]; veterinary E. faecalis strain VT 71, read-out: MIC (E-test)): 2 µg/mL; MIC ([4]; veterinary E. faecalis strains VT16, VT 22, DR 2891, read-out: MIC (E-test)): 1 µg/mL; MIC ([5]; human E. faecium strain 79765, read-out: MIC (E-test)): 24 µg/mL; MIC ([5]; human E. faecium strain 87156, read-out: MIC (E-test)): 48 µg/mL; MIC ([5]; human E. faecium strains 73047, 91185, read-out: MIC (E-test)): 48 µg/mL; MIC ([5]; veterinary E. faecium strain 30651, read-out: MIC (E-test)): 8 µg/mL; MIC ([5]; veterinary E. faecium strain 30658, read-out: MIC (E-test)): 4 µg/mL; MIC ([5]; veterinary E. faecium strains 30656, 30665, read-out: MIC (E-test)): 6 µg/mL; Interpretation (clinical susceptibility/resistance) [5, 21]: R; Interpretation (clinical susceptibility/resistance) [5, 22]: R; Interpretation (clinical susceptibility/resistance) [5, 23]: R
CN[C@H](CC(C)C)C(=O)N[C@H]1C(=O)N[C@@H](CC(N)=O)C(=O)N[C@H]2C(=O)N[C@H]3C(=O)N[C@H](C(=O)N[C@H](C(=O)O)c4cc(O)cc(O)c4-c4cc3ccc4O)[C@H](O)c3ccc(c(Cl)c3)Oc3cc2cc(c3O[C@@H]2O[C@H](CO)[C@@H](O)[C@H](O)[C@H]2O[C@H]2C[C@](C)(N)[C@H](O)[C@H](C)O2)Oc2ccc(cc2Cl)[C@H]1O [vancomycin]								R	R	R	R	S	S	R	R	R	S	S	S	S	MIC ([4]; read-out: MIC (E-test), human E. faecalis strain A (Van B)): 48 µg/mL; MIC ([4]; read-out: MIC (E-test), human E. faecalis strain B (Van B)): 4 µg/mL; MIC ([4]; read-out: MIC (E-test), human E. faecalis strain C (Van B)): 32 µg/mL; MIC ([4]; read-out: MIC (E-test), human E. faecalis strain E): 2 µg/mL; MIC ([4]; read-out: MIC (E-test), veterinary E. faecalis strain DR 2698): 2 µg/mL; MIC ([4]; read-out: MIC (E-test), veterinary E. faecalis strain VT 37): 4 µg/mL; MIC ([4]; read-out: MIC (E-test), veterinary E. faecalis strain VT 71): 4 µg/mL; MIC ([4]; read-out: MIC (E-test), veterinary E. faecalis strains VT16, VT 22, DR 2891): 6 µg/mL; MIC ([5]; read-out: MIC (E-test), human E. faecium strain 76366): 3 µg/mL; MIC ([5]; read-out: MIC (E-test), human E. faecium strain 79765): 3 µg/mL; MIC ([5]; read-out: MIC (E-test), human E. faecium strain 87156): 2 µg/mL; MIC ([5]; read-out: MIC (E-test), human E. faecium strains 73047, 91185): 3 µg/mL; MIC ([5]; read-out: MIC (E-test), veterinary E. faecium strain 30651): 1.5 µg/mL; MIC ([5]; read-out: MIC (E-test), veterinary E. faecium strain 30658): 1.5 µg/mL; MIC ([5]; read-out: MIC (E-test), veterinary E. faecium strains 30656, 30665): 1.5 µg/mL; Interpretation (clinical susceptibility/resistance) [5, 21]: S; Interpretation (clinical susceptibility/resistance) [5, 22]: S; Interpretation (clinical susceptibility/resistance) [5, 23]: S

Converted amounts (≈) assume the structure as drawn.
